{
  "source": "paper PMC4537477",
  "about": "(Protein & Cell, 2015)",
  "binders": {"B1": {"name": "N-terminal domain of human MCM2 ([…]) (domain or fragment)", "chain": "not shown"}},
  "molecular_target": "full-length human histone H4 (human, UniProt P62805)",
  "assay": "crystal structure; 3.5-Å structure of the MCM2-ASF1-H3-H4 quaternary complex, solved by molecular replacement; six tetramers in one asymmetric unit",
  "details": "both partners purified",
  "data": [
    {"binder": "B1", "values": [
      {"measurement": "binding result", "result": "binds"}
    ]}
  ]
}
